Laboratory results as given in PubChem BioAssay AID1159614 (National Center for Advancing Translational Sciences (NCATS), 2016).
About 65 (0.1%) of roughly 45,000 compounds were called active. Calls follow the shape of the dose curve; as a rule, active = well fitted activation curve with a large enough effect; inconclusive = small, poorly fitted or top-dose-only effect; inactive = no such curve, though single readings can be large or run the other way. The list shows a part of the results. Square brackets hold non-standard residues; d marks the D form. Peptide text beside a SMILES is read from it. * marks the point of attachment. Sta = CC(C)C[C@H](N)[C@@H](O)CC(=O)O; Isovaleryl = CC(C)CC(=O)*

molecular target: Galactocerebrosidase (Homo sapiens) (UniProt P54803); test: A Novel Cell-Based Assay to Identify Small Molecules for B -Galactocerebrosidase; conditions: 145M-Twi-hGALC-G270D cells (Twitcher mouse brain line with human GALC G270D), HMU-beta-Gal fluorescence, 48 h; series mostly up to 57.5 µM; activation: at the top concentration; also: 0% is about no effect; nearly all actives have a fitted effect of over 65% in size
UniProt P54803, sequence (P54803 whole entry, looked up): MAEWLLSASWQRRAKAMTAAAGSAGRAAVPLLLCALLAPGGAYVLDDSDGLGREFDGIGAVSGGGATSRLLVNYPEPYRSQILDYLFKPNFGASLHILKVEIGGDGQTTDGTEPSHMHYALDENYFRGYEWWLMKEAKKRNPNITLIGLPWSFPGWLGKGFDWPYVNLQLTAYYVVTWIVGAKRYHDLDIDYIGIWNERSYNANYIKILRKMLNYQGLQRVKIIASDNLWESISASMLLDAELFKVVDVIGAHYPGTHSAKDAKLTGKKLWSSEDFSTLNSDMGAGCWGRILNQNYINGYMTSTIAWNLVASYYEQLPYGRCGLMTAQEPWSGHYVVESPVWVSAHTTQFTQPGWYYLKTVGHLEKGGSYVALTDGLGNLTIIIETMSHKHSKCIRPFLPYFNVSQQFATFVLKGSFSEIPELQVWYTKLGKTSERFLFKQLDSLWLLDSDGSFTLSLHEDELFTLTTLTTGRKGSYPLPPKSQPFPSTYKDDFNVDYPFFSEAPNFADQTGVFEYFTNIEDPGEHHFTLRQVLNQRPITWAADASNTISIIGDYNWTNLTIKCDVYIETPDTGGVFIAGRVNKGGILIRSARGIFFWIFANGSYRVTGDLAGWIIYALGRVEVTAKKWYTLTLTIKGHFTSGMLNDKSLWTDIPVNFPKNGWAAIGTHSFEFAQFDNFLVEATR
In short: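 Live 145M-Twi cells (Twitcher mouse brain-derived, GALC-null) stably expressing human GALC-G270D, with a wild-type GALC line, were compound-treated. Residual GALC activity was then read as fluorescence from 0.1 mM final HMU-β-gal at pH 5.2; higher signal means activation.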

| Structure (SMILES) | activation |
| --- | --- |
| Cc1ccc(CNC(=O)C2CCCN(Cc3nc(-c4cccc(C)c4)oc3C)C2)cc1 (configuration not stated) | inactive: -10.8% |
| COc1cccc(NC(=O)C2CCN(c3nnc(-n4c(C)ccc4C)s3)CC2)c1 | inactive: -0.2% |
| Cc1ccc2ccc(Cl)cc2n1 | inactive: -9.7% |
| O=c1cc(O)c(Cl)c[nH]1 | inactive: -13% |
| COc1ccc(-c2nc3ccccc3o2)cc1NC(=O)c1ccc(-c2cccc(Cl)c2C)o1 | inactive: -6.93% |
| Cc1cc2c(cc1S(=O)(=O)Nc1cccc(Cl)c1C)OCCN2C | inactive: -6.69% |
| Cc1c(-c2nc(-c3ccc4c(c3)OCO4)no2)nnn1-c1cccc(C(F)(F)F)c1 | inactive: -27.7% |
| Cc1ccc(Cl)cc1N1CCN(C(=O)COCc2cc(-c3ccc4c(c3)OCO4)on2)CC1 | inactive: -20.8% |
| CCN(CC)CCNC(=O)c1ccc2c(=O)n3nc(Nc4ccccc4)sc3nc2c1 | inactive: -7.85% |
| CC1=C(C(=O)Nc2cccc(C(F)(F)F)c2)C2(CCN(C(C)C)CC2)OC1=O | inactive: 16% |
| c1ccc(CCNc2nc(-c3ccccc3)cs2)cc1 | inactive: 3.88% |
| CCOC(=O)c1ccc(CN(Cc2ccc(C)cc2)S(=O)(=O)c2ccc(NC(C)=O)cc2)cc1 | inactive: -2.67% |
| Cc1ccc(NC(=O)C2CCCN(S(=O)(=O)c3c(C)n[nH]c3C)C2)cc1C (configuration not stated) | inactive: -8.46% |
| CSc1cccc(NC(=O)C2CCN(S(=O)(=O)c3ccc4[nH]c5c(c4c3)CCCCC5)CC2)c1 | inactive: 2.16% |
| CC(C)CCNC(=O)Nc1cc(C(=O)NCc2cccc(F)c2)ccc1N1CCCC1 | inactive: -28.1% |
| COc1ccc2c(c1)c1c(c(=O)n(Cc3ccccc3)c(=O)n1CC(=O)Nc1ccc(C)cc1C)n2C | inactive: -8.93% |
| COc1ccc2c(c1)CC(C(=O)NCCN1CCN(c3cccc(C)c3C)CC1)CO2 (configuration not stated) | inactive: -9.79% |
| COc1ccc(C)cc1NC(=O)Cn1c(=O)oc2cc(S(=O)(=O)NCc3ccccc3)ccc21 | inactive: 9.4% |
| O=C(Nc1nnc(S(=O)(=O)N2CCCCCC2)s1)c1ccccc1Br | inactive: -4.02% |
| CC(=O)Nc1ccc(Nc2nnc(-c3ccc(C)c(S(N)(=O)=O)c3)c3ccccc23)cc1 | inactive: 0.757% |
| COCCCNC(=O)CN1C(=O)CSc2ccc(S(=O)(=O)N3CCOCC3)cc21 | inactive: 4.87% |
| CCn1cc2nc(SCc3ccc(F)cc3)n(Cc3ccc(Cl)cc3)c(=O)c2n1 | inactive: -13.1% |
| CCCS(=O)(=O)N1CC(=O)N(c2ccc(Cl)cc2)C(C)(C(=O)NC2CCCC2)C1 (configuration not stated) | inactive: -13% |

| Structure (SMILES) | activation |
| --- | --- |
| O=C(NCc1ccccc1Cl)c1ccc(NC(=O)N2CCSc3ncccc32)cc1 | inactive: 1.51% |
| COCCn1c(SCC(=O)Nc2ccc(C(F)(F)F)cc2)nc2c([nH]c3ccccc32)c1=O | inactive: 0.161% |
| Cc1ccc(NC(=O)c2oc3ccc(S(=O)(=O)N4CCC5(CC4)OCCO5)cc3c2C)c(C)c1 | inactive: -8.82% |
| Cc1ccc(NC(=O)C(=O)NCCc2csc3nc(-c4ccccc4C)nn23)cc1Cl | inactive: 2.01% |
| O=C(NCc1ccc2c(c1)CCN2C(=O)c1ccccc1)c1ccco1 | inactive: -12% |
| O=C(Nc1ccc(S(=O)(=O)N(Cc2ccccc2)c2ccccc2)cc1)c1ccc([N+](=O)[O-])cc1 | inactive: -20% |
| O=c1cc[nH]c(=S)[nH]1 | inactive: -14.2% |
| CCCCCOC(=O)c1ccc(OC(=O)c2sc3ncn(Cc4cccc(F)c4)c(=O)c3c2C)cc1 | inactive: -10% |
| CCOC(=O)c1cc(S(=O)(=O)N2CCN(c3ccc(F)cc3)CC2)[nH]n1 | inactive: -8.04% |
| CCCN(CCC)CCNC(=O)C1CCCN(S(=O)(=O)c2cccc3nsnc23)C1 (configuration not stated) | inactive: -18.4% |
| Cc1ccc(C)c(N2CCN(CCCNC(=O)c3nnc(Cc4ccc(F)cc4Cl)o3)CC2)c1 | inactive: -10.5% |
| CCC1=C(c2ccc(C)cc2)S(=O)(=O)N=C1N1CCC(C(=O)NCc2ccccc2Cl)CC1 | inactive: -48.7% |
| CC(C)Cn1cc(C(=O)N2CCN(c3cccc(Cl)c3)CC2)c2c3ccccc3n(C)c2c1=O | inactive: 0.978% |
| CCOC(=O)c1cnc2ccc(OCC)cc2c1Nc1cc(Cl)c(OC)cc1OC | inactive: -17.6% |
| CC(=O)N1CCCc2cc(S(=O)(=O)N3CCCC(C(=O)Nc4cccc(Cl)c4C)C3)ccc21 (configuration not stated) | inactive: -18.2% |
| CC(C)CC(=O)N[C@H](C(=O)N[C@H](C(=O)N[C@@H](CC(C)C)[C@@H](O)CC(=O)N[C@@H](C)C(=O)N[C@@H](CC(C)C)[C@@H](O)CC(=O)O)C(C)C)C(C)C (Isovaleryl-VV[Sta]A[Sta]-OH) | inactive: -11.7% |
| CCOc1cc2[nH]c(=O)n(CCCC(=O)N3CCN(c4cccc(Cl)c4)CC3)c(=O)c2cc1OCC | inactive: -9.94% |
| Cc1nc(SCc2ccc(Cl)cc2)c(C#N)c(C)c1Cl | inactive: -23.3% |
| COc1ccc(OC)c(CNc2sc3c(c2C(=O)Nc2cc(OC)ccc2OC)CCCC3)c1 | inactive: -15.4% |
| COc1ccc(OC)c(NC(=O)N2CCC(CN3CCCCC3)CC2)c1 | inactive: -9.17% |
| CCCCc1ccc(NC(=O)c2ccc3c(c2)CCN3S(=O)(=O)c2ccccc2)cc1 | inactive: -27.6% |
| COC(=O)c1ccc(Cn2c(SCC(=O)N(C)c3ccccc3)nc3ccccc32)cc1 | inactive: -19.3% |
| CCOc1cc(C(=O)Nc2ccc(S(=O)(=O)Nc3cc(OC)nc(OC)n3)cc2)cc(OCC)c1OCC | inactive: -37.7% |

| Structure (SMILES) | activation |
| --- | --- |
| Cc1ccc(C)c(OC(=O)CSc2nnc(-c3ccc4c(c3)OCO4)o2)c1 | inactive: -9.61% |
| O=C(NCc1ccccc1)c1ccc2c(c1)nc1n2CCCCC1 | inactive: -9.66% |
| Cc1cc(C)cc(NC(=O)Cn2c3ncccc3c(=O)n2-c2ccc(C)c(C)c2)c1 | inactive: -13.1% |
| Cc1ccc(CSc2ncc(Cl)c(C(=O)Nc3sc4c(c3C(N)=O)CCCC4)n2)cc1 | inactive: -14.1% |
| O=C(Cn1cnc2nc3c(cc2c1=O)CCCC3)N1CCN(c2ccccc2)CC1 | inactive: 1.13% |
| CCc1nn2c(=O)cc(COc3ccc(/C=C(\C#N)C(=O)Nc4ccc(C)cc4)cc3)nc2s1 | inactive: 2.84% |
| Cc1cccc(N2CCN(Cc3nnc(-c4ccc5c(c4)OCO5)o3)CC2)c1C | inactive: -5.52% |
| COc1ccc(NC(=O)Nc2ccccc2OCc2cc(=O)n3ccccc3n2)c(OC)c1 | inactive: 7.91% |
| CC(C)(C)C1CCC(CC2=C(O)c3ccccc3C(=O)C2=O)CC1 (configuration not stated) | inactive: -5.48% |
| O=C(CN1C(=O)C2CCCCN2c2ccc(C(=O)N3CCCC3)cc21)NCc1cccc(F)c1 (configuration not stated) | inactive: -7.56% |
| Cc1ccccc1CNC(=O)C(=O)NCC(c1cccs1)S(=O)(=O)c1ccc(Cl)cc1 (configuration not stated) | inactive: -7.6% |
| CCc1ccc(NC(=O)Cn2c(=O)n(CC3CCCO3)c(=O)c3cc(OC)c(OC)cc32)cc1 (configuration not stated) | inactive: -1.33% |
| O=C(Cn1c(=O)c2cccn2c2ccc(F)cc21)N1CCN(c2ccccc2)CC1 | inactive: -12.2% |
| Cc1ccc(-c2cc(C(F)(F)F)c(C#N)c(SCC(=O)O)n2)cc1 | inactive: -37.1% |
| O=c1c(=O)n(Cc2c(F)cccc2Cl)ccn1Cc1ccccc1 | inactive: -13.4% |
| CC(=O)N1CCc2c(sc3c2c(=O)n(CCc2ccccc2)c(=O)n3Cc2cccc(C)c2)C1 | inactive: -19.8% |
| CC(=O)N1c2ccc(S(=O)(=O)N3CCN(c4cccc(Cl)c4)CC3)cc2CC1C (configuration not stated) | inactive: 5% |
| CCOc1cc(C2C(C(=O)OC)=C(C)NC3=C2C(=O)c2ccccc23)c(Br)cc1O (configuration not stated) | inactive: 19.8% |
| COc1ccc2oc(-c3ccc(C)c(NC(=O)CSc4ccc(Cl)cc4)c3)nc2c1 | inactive: -1.55% |
| CC(C)NC(=O)Cn1nc(N2CCN(c3ccccc3)CC2)ccc1=O | inactive: 4.61% |
| COCCN1Cc2cccc(C(=O)Nc3ccc(Cl)cc3Cl)c2C1=O | inactive: -20.5% |
| C[C@H](O)C(=O)Nc1c(I)c(C(=O)NC(CO)CO)c(I)c(C(=O)NC(CO)CO)c1I | inactive: -15.4% |
| CCN(CC)c1ccc(NC(=O)CN2C(=O)c3cccnc3Sc3ccccc32)c(C)c1 | inactive: -15.4% |

| Structure (SMILES) | activation |
| --- | --- |
| COc1cccc(NC(=O)Cn2c(=O)n(CC(=O)NCCc3ccccc3)c(=O)c3sccc32)c1 | inactive: -10.4% |
| Cc1ccc(-c2c3c(=O)n(C)c(=O)n(C)c3cn2-c2cc(C)ccc2O)cc1 | inactive: -14.6% |
| COc1ccc(N2CCN(C3C(=O)c4ccccc4N3C(C)=O)CC2)cc1 (configuration not stated) | inactive: 0.0583% |
| Cc1c(Cl)cccc1-n1ncc(C(=O)Nc2ccc(F)cc2F)c1C1CCN(C(=O)OC(C)(C)C)CC1 | inactive: -18.8% |
| COC(=O)C1CCN(C(c2ccccc2)c2sc3nc(-c4ccco4)nn3c2O)CC1 (configuration not stated) | inactive: -22% |
| O=C1CC(c2nc(-c3ccccc3)no2)CN1c1ccc2c(c1)OCCO2 (configuration not stated) | inactive: -13.6% |
| Cc1c(Cl)cccc1NC(=O)CSc1nc(=O)n(Cc2cccnc2)c2c1CCC2 | inactive: -11.3% |
| Cc1ccc(CNC(=O)C2CCN(C(=O)c3cnn(-c4ccccc4)c3-n3cccc3)CC2)cc1 | inactive: -1.53% |
| CCOc1cccc(NC(=O)c2ccc(F)c(S(=O)(=O)N(CC)c3cccc(C)c3)c2)c1 | inactive: -2.56% |
| Cc1ccc(Cn2cc(S(=O)(=O)c3ccc(C)cc3)c(=O)c3cc(F)c(N4CCCC4)cc32)cc1 | inactive: -5.82% |
| Cc1cccc(C(=O)NCC(=O)OCc2cc(=O)n3nc(C4CC4)sc3n2)c1 | inactive: -8.3% |
| CCOC(=O)Cn1c(=O)n(C2CCCCC2)c2nc(-c3cccc(OC)c3)nc(C(N)=O)c21 | inactive: -10.1% |
| Cc1cc(C)cc(NC(=O)CCc2c(C)nc3c4cccnc4nn3c2C)c1 | inactive: -11.7% |
| Cc1cccc(NC(=O)Cc2csc(COc3cccc(C)c3)n2)c1 | inactive: -20.4% |
| Cc1ccc(CNC(=O)Cn2c(=O)n(-c3cccc(Cl)c3)c(=O)c3sc4ccccc4c32)cc1 | inactive: -5.79% |
| CCOC(=O)C1CCCN(S(=O)(=O)c2csc(C(N)=O)c2)C1 (configuration not stated) | inactive: -13.1% |
| COc1ccccc1N1CCN(C(=O)c2cc3ccc4ccc(C)[nH]c4c3n2)CC1 | inactive: -22.6% |
| CCOc1ccc(-c2cc3nc(C4CCN(C(=O)OC(C)(C)C)CC4)c(C(=O)Nc4ccc(C)cc4C)cn3n2)cc1 | inactive: -11.9% |
| CCOc1ccc(S(=O)(=O)Nc2ccc(-c3ccc(OC)nn3)cc2)cc1 | inactive: -13.9% |
| CCC(Sc1nc2nccnc2c(=O)n1Cc1ccc(C)cc1)C(=O)NC1CCCCC1 (configuration not stated) | inactive: -7.9% |
| CCc1nn2c(=O)c(S(=O)(=O)Nc3cccc(F)c3)c(C)nc2s1 | inactive: -15.8% |
| COc1cc2c(c(OC)c1)C(c1cc(OC)c(OC)c(OC)c1)CC(=O)N2 (configuration not stated) | inactive: -15.6% |
| CCCNC(=O)N1CCN(S(=O)(=O)c2ccc3c(ccn3C)c2)CC1 | inactive: 4.92% |
